From PubChem BioAssay AID485364 (National Center for Advancing Translational Sciences (NCATS), 2010)
In all, about 360,000 compounds went through this assay and about 11,000 (3.1%) were called active. The inconclusive results got no clear call from the source; some entries with a clear call stand among them for comparison. Calls come from the whole dose curve; as a rule, active = well fitted inhibition curve with a large enough effect; inconclusive = small, poorly fitted or top-dose-only effect; inactive = no such curve, though single readings can be large or run the other way. Potencies of inconclusive entries are left out as doubtful fits.

Target: Schistosoma mansoni thioredoxin glutathione reductase (TGR) (UniProt Q962Y6)
Assay: qHTS Assay for the Inhibitors of Schistosoma Mansoni Peroxiredoxins; note: nearly all actives have a fitted effect of over 60% in size
Details: purified TGR, DTNB reduction, TNB absorbance 405 nm; activity change, negative = inhibition: at 114 µM (top of the series) unless noted
In short: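 TGR 20 nM + NADPH 100 uM (dispensed conc.), cpd preinc 15 min RT; start with NADPH (500 uM addition) then DTNB (15 mM addition). Kinetic TNB absorbance, 405 nm filter. Four-parameter Hill fit across titration.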
% is set by controls: 0 for no effect and ±100 for the full control effect; potency is the fitted concentration of half-maximal effect; tags give direction and shape of the fitted curve.

Row | SMILES | Potency | activity change, negative = inhibition
1 | COC(=O)c1ccc(CN(C(C)=O)c2ccccc2)o1 | inconclusive [inhibitor, partial curve] | –
2 | Clc1ccccc1Nc1ncnc2c1nnn2Cc1ccccc1 | inconclusive [inhibitor, single point] | –
3 | COc1cc(NC(=O)c2noc3c2CCC3)c(OC)cc1Cl | inconclusive [inhibitor, partial curve] | –
4 | CC(=O)c1ccc(NC(=O)/C(=C\c2ccco2)NC(=O)c2ccco2)cc1 | inconclusive [inhibitor, partial curve] | –
5 | CCOC(=O)c1cc(S(=O)(=O)NC2CCN(C(=O)OCC)CC2)cn1C | inconclusive [inhibitor, single point] | –
6 | O=C1CC(N2CCC(Cc3ccccc3)CC2)C(=O)N1CCc1ccccc1 (centres undefined) | active: 11.2 µM | –
7 | CN(C)S(=O)(=O)c1ccc(NC(=O)c2cc(-c3cccs3)nc3ccccc23)cc1 | – | inactive: 2.43%
8 | CCOC(=O)CN(Cc1ccccc1)C(C(=O)NC1CCCCC1)c1ccc(C)cc1 (centres undefined) | – | inactive: 2.48%
9 | CC1=C(C(=O)OC2CCCCCC2)C(c2ccc(C)o2)C2=C(CCCC2=O)N1 (centres undefined) | inconclusive [inhibitor, partial curve, poor fit] | –
10 | CCOC(=O)c1[nH]c(C)c(/C(O)=C2\C(=O)C(=O)N(CCN(C)C)C2c2ccc(C)o2)c1C (centres undefined) | active: 28.2 µM | –
11 | CSCCC(NC(=O)c1ccco1)C(=O)OCC(=O)Nc1sccc1C#N (centres undefined) | inconclusive [inhibitor, partial curve] | –
12 | O=C(CNC(=O)c1ccccc1)OCCCOC(=O)CNC(=O)c1ccccc1 | inconclusive [inhibitor, full curve, poor fit] | –
13 | CCCCn1c(=O)[nH]c(=O)c2c1nc(-c1ccc(-c3ccc(F)cc3)o1)n2C | inconclusive [inhibitor, partial curve] | –
14 | Cc1ccccc1NC(=O)OCc1ccccc1 | – | inactive: -15.9%
15 | O=C(CCCn1c(=O)c2ccccc2n(Cc2ccc(F)cc2Cl)c1=O)NCCc1ccc(Cl)cc1 | inconclusive [inhibitor, single point] | –
16 | COC(=O)c1ccccc1NC(=O)c1nc(S(=O)(=O)Cc2cccc(C)c2)ncc1Cl | inconclusive [inhibitor, full curve] | –
17 | Cc1ccc2nc(N3CCN(c4ccccc4F)CC3)c(C=O)c(=O)n2c1 | inconclusive [inhibitor, full curve] | –
18 | CCCCOc1ccccc1NC(=O)CC1Nc2ccccc2NC1=O (centres undefined) | inconclusive [inhibitor, partial curve] | –
19 | O=C(OC1CCCCC1)c1ccc2c(c1)C1C=CCC1C(C(=O)O)N2 (centres undefined) | active: 3.16 µM | –
20 | COc1ccc(CCN(C)Cc2ccc(C(=O)Nc3ccccc3)cc2)cc1OC | – | inactive: -23.9%
21 | Oc1ccc(O)c(/C(=N/Nc2ccccc2)c2ccccc2)c1 | active: 6.31 µM | –
22 | CC(C)(C)c1ccc(C(=O)NCC(=O)OCC(=O)N2CCCC2)cc1 | – | inactive: 6.36%

Row | SMILES | Potency | activity change, negative = inhibition
23 | COc1ccc(CCNS(=O)(=O)CCNC(=O)c2ccccc2)cc1 | inconclusive [inhibitor, partial curve] | –
24 | Clc1ccccc1Nc1c2c(nc3ncnn13)CCC2 | – | inactive: 0%
25 | CC1CCCCN1C(=O)Cn1nnc(-c2cccnc2)n1 (centres undefined) | inconclusive [inhibitor, partial curve, poor fit] | –
26 | Cc1ccc(N2CCN(C(=O)c3ccccc3NC(=O)/C=C\C(=O)O)CC2)cc1 | inconclusive [inhibitor, partial curve] | –
27 | CCOC(=O)c1c(NC(=O)CSc2n[nH]c(-c3ccco3)n2)sc(C)c1C | inconclusive [inhibitor, partial curve] | –
28 | COc1ccc([C@]23Cc4cc(OC)c(OC)cc4C(O2)c2c(cc(-c4ccccc4)oc2=O)O3)cc1 | inconclusive [inhibitor, full curve] | –
29 | Cc1ccc(N2CC(NC(=O)c3ccc(S(=O)(=O)N4CCCC4)cc3)CC2=O)cc1 (centres undefined) | – | inactive: 5.21%
30 | Cc1cc(=O)[nH]c(N/N=C/c2ccccc2Cl)n1 | – | inactive: 6.05%
31 | Cc1oc(S(=O)(=O)N2CCCCC2)cc1NC(=O)Nc1ccccc1 | active: 10 µM | –
32 | CC1CCCCN1S(=O)(=O)c1ccc(C(=O)Nc2ccccc2-c2nc3ccccc3[nH]2)cc1 (centres undefined) | inconclusive [inhibitor, single point] | –
33 | Cc1ccc(-c2nc(NC(=O)c3ccc(S(=O)(=O)N(CCC#N)CCC#N)cc3)sc2-c2ccccc2)cc1 | – | inactive: -7.89%
34 | CC(C)CC(=O)Nc1ccc(S(=O)(=O)Nc2cc3c(cc2N2CCOCC2)n(C)c(=O)c(=O)n3C)cc1 | – | inactive: -25.4%
35 | Cc1ccc(NC(=O)c2cn3c4c(ccc(Cl)c4c2=O)OC(C)C3)c(C)c1 (centres undefined) | – | inactive: -1.63%
36 | CC(/C=C/c1ccco1)=N/NC(=O)c1ccc(C)nc1 | active: 44.7 µM | –
37 | O=C(NCc1ccco1)C1CCCN(S(=O)(=O)c2cccc3nonc23)C1 (centres undefined) | active: 22.4 µM | –
38 | COCCN(CCNC(=O)c1ccc(NC2=NC3CS(=O)(=O)CC3S2)cc1)Cc1ccco1 (centres undefined) | – | inconclusive: -38.8% [inhibitor]
39 | Cc1ccccc1S(=O)Cc1ccc(C(=O)N2CCN(C(=O)c3ccco3)CC2)o1 (centres undefined) | inconclusive [inhibitor, partial curve] | –
40 | COc1cc(NC(=S)NCc2cccnc2)cc(OC)c1OC | inconclusive [inhibitor, partial curve] | –
41 | COc1cc(OC)c(NC(=O)Cn2nc(C)n3cccc3c2=O)cc1Cl | inconclusive [inhibitor, single point] | –
42 | Cc1ccccc1C(=O)NC(=S)NCC1CCCO1 (centres undefined) | inconclusive [inhibitor, full curve, poor fit] | –
43 | Cc1ccc2[nH]c(=O)c(CN(Cc3nnnn3Cc3ccccc3)C3CCCC3)cc2c1 | inconclusive [inhibitor, full curve] | –
44 | COc1ccc(Cc2nc3ccc(C(=O)NCC4CCOCC4)cc3o2)cc1OC | inconclusive [inhibitor, partial curve, poor fit] | –
